Assay results taken from PubChem BioAssay AID2546 (National Center for Advancing Translational Sciences (NCATS), 2010).
About 11,000 (3.5%) of roughly 310,000 compounds were called active. Inconclusive results, whose numbers are uncertain, are shown with a selection of clear calls. Calls come from the whole dose curve; as a rule, active = well fitted inhibition curve with a large enough effect; inconclusive = small, poorly fitted or top-dose-only effect, or effect the other way; inactive = flat fitted curve, though single readings scatter. Potencies of inconclusive entries are left out as doubtful fits.

Assay: VP16 counterscreen qHTS for inhibitors of ROR gamma transcriptional activity;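 note: Gal4-VP16 expression switched on by copper sulfate through the metallothionein promoter; nearly all actives have a fitted effect of over 50% in size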
Details: Drosophila S2 Gal4-VP16 UAS-luciferase, luminescence, 20 h; activity, negative = inhibition: at 53.6 µM (top of the series)
% is set by controls: 0 for no effect and ±100 for the full control effect; potency is the fitted concentration of half-maximal effect; tags give direction and shape of the fitted curve.

Compound	Potency	activity, negative = inhibition
CCOC(=O)c1c(C)n(-c2ccc(C)cc2)c2ccc(O)c(CN(C)C)c12	inconclusive [inhibitor, partial curve]	
CS(=O)(=O)c1ccc2nc(NC(=O)c3cccc(NS(=O)(=O)c4ccc(F)c(F)c4)c3)sc2c1	inconclusive [inhibitor, single point]	
CCN(c1ccccc1)S(=O)(=O)c1cc(C(=O)Nc2ccccc2Cl)ccc1F	inconclusive [inhibitor, partial curve]	
CCN(Cc1ccccc1)C(=S)NC(=O)c1ccccc1Br	active: 1.12 µM	
CN(CC(=O)Nc1ccc(F)cc1[N+](=O)[O-])Cc1ccccc1		inactive: 8.21%
Cc1ccc(NC(=O)c2cccc(S(=O)(=O)N3CCN(c4ccc(F)cc4)CC3)c2)nc1	inconclusive [inhibitor, single point]	
O=c1c2oc3ccccc3c2ncn1Cc1ccc(Cl)cc1		inactive: -8.67%
Nc1nnc(-c2ccco2)s1		inactive: -8.5%
CC(C)n1nc(C(=O)Nc2nnc(SCc3c(Cl)cccc3Cl)s2)c2ccccc2c1=O	inconclusive [inhibitor, single point]	
Cn1c(=O)c2c(nc(Br)n2CC(=O)c2cccs2)n(C)c1=O		inactive: 9.39%
O=[N+]([O-])c1cc(S(=O)(=O)N2CCCC2)ccc1N/N=C/c1cccnc1		inactive: -9.09%
Cc1c(NC(=S)N/N=C/C=C/c2ccc([N+](=O)[O-])cc2)c(=O)n(-c2ccccc2)n1C	active: 11.2 µM	
Cc1cc(NC(=O)c2ccc3[nH]c(C)c(C)c3c2)ccn1		inactive: -6.88%
CC(=O)NC(c1ccc(C)cc1)c1cc(Cl)c2cccnc2c1O (configuration not stated)	active: 0.631 µM	
O=C(CSc1nc2ccccc2s1)c1ccc(O)cc1O	inconclusive [inhibitor, single point]	
O=C(N/N=C/c1cccc(OCc2ccccc2)c1)c1cccs1	inconclusive [inhibitor, single point]	
COc1ccc(-c2nnc(CSc3nc4ccccc4c(=O)n3CC(C)C)o2)cc1OC		inactive: -1.15%
COC(=O)Cc1ccc(NC(=S)Nc2cccc(C)n2)cc1	inconclusive [inhibitor, partial curve, poor fit]	
Cc1cc(NC(=O)CSc2nnnn2-c2ccccc2C)no1		inactive: -19.7%
Nc1nc(-c2cccc(NS(=O)(=O)c3ccccc3)c2)cs1	active: 17.8 µM	
CCCCCCc1cc2cc(-c3nnc(-c4ccccc4OC)o3)c(=O)oc2cc1O	inconclusive [inhibitor, single point]	
S=c1[nH]c2cc3ccccc3cc2[nH]1	inconclusive [inhibitor, single point]	
